Data from publication PMC12136788.
Some of the results follow.

T1: UNK ZnF1-3 (human, UniProt Q9C0B0 31-174)
T1 sequence: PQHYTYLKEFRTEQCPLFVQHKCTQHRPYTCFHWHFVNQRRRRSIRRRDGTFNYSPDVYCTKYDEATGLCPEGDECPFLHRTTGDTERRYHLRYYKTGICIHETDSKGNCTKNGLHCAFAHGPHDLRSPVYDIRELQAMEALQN

B1: chr3:119217614:119217615:+_ENSG00000113845_ENST00000264244|hu_mus|motif|central (ssRNA)
RNA: GGGAGUUCUACAGUCCGACGAUCGCUCCGCAAAGGCGGCUGCGGGGAGCGGGCGGCGGCGCGCCCAUGGCGCCCUCCGGCCCGCAGAGAGACAGACACCCCAGGGUCGGCGGGCACCGUGGGAGAGGGUGACCUGUACAGCCCCAACAGAGGAUUGAGCAUCA
B2: chr10:33190432:33190433:-_ENSG00000150093_ENST00000302278|hu_mus|hu_hu_hu_mus_True|38_48 (ssRNA)
RNA: GGGAGUUCUACAGUCCGACGAUCUACAUUUUCCAAACCUGCAUGUGAAUAAAACCCUGGCCACAGAGCCCCAAAACUACCCUACUGUGACUAUGGAAAUUGCUACUUGAGCUUGGUGUUGCAAAAUCCGCCUGAGUAGGAUUCCAACAGAGGAUUGAGCAUCA
B3: chr13:100192284:100192285:-_ENSMUSG00000052727_ENSMUST00000064762|mus_hu|FALSE|FALSE (ssRNA)
RNA: GGGAGUUCUACAGUCCGACGAUCGUAAGAUUUCCAUUAGCAAAUGAUUAAAUCUUAAUUAAAUGAGUAUUGGAAAGCUCCUAGACUGCAUAAGCUAUUGGAGACACUUAAAACAUUCAUAUACACUGGGGAAACCAUUCACUACAACAGAGGAUUGAGCAUCA
B4: chr6:114281168:114281169:-_ENSG00000196591_ENST00000368632|hu_hu|hu_hu_hu_mus_True|38_78 (ssRNA)
RNA: GGGAGUUCUACAGUCCGACGAUCUUCCAUUUUUCGGUAUAAACCAUAAUUUAGCAGCAAGUUAUGGGUCAUCCGGAUUCUAUGAGGCUUCAUGGGAUGACCCUGUCCAUAAUAAUAAUUGCCAAUAUCACCAUCAUAGUAGUACAACAGAGGAUUGAGCAUCA
B5: chr9:53430067:53430068:-_ENSMUSG00000032030_ENSMUST00000166367|mus_hu|FALSE|FALSE (ssRNA)
RNA: GGGAGUUCUACAGUCCGACGAUCGGGUGAGUUGACUUGAGGUUCAUACAACAAAACUUGCCGUUUGAGUUUUGGGAAAGCUACUAAAGACCAUAAAGUCCUCCUAAGUUCAGCAUCAGGGAGUUCAGUUGCAAGCUUAAGAUUCAACAGAGGAUUGAGCAUCA
B6: 109005753_109006138_1874_CDS_ENSMUSG00000053646_ENSMUST00000072093|mouse|control|control (ssRNA)
RNA: GGGAGUUCUACAGUCCGACGAUCUGACAAGAAAACCUCCCUCCUCUCUUCCCGACUGAUAUUGGCAGGGCUCACGGCCACCACUCGAAGACAGCCCAGUUCCGGCUGGAAGCUCCACAGCCACUGCUCUGGGCCCUGGUCCCUCAACAGAGGAUUGAGCAUCA
B7: chr3:103141349:103141350:+_ENSMUSG00000033014_ENSMUST00000106860|mus_mus|FALSE|FALSE (ssRNA)
RNA: GGGAGUUCUACAGUCCGACGAUCACUUGUAGGCUGAGGGGGUAGAUGACUGCCUGAGAUAUAUCUACUCAGUAGAUUAUCUAAACUACUUGAGCCAGCAUCUUCCAACUGUAUAGGUGGGAUAUCUGGCAACGAUGGAAGGUUCAACAGAGGAUUGAGCAUCA
B8: chr7:135612270:135612271:-_ENSG00000105887_ENST00000393085|hu_mus|hu_hu_hu_mus_False|18_108 (ssRNA)
RNA: GGGAGUUCUACAGUCCGACGAUCGUUUCUGAGAUGUAUGUUAAAUAGUACUUCAGUGGAAAACAAAACUUAACCUUUUAUUAAUGCGUGUUGUACCAAAAGCAGACAUUUUAGCUUGCUUCCUUUAAAAAUAUUAACAUUAAGCAACAGAGGAUUGAGCAUCA
B9: chr2:26491064:26491065:+_ENSMUSG00000036186_ENSMUST00000074240|mus_hu|FALSE|FALSE (ssRNA)
RNA: GGGAGUUCUACAGUCCGACGAUCGAAGUCAGCCAUGAGCAGGACCUGGCCAACCAGCGCCGGCAGGGAAGGCAGGUCUCCCAGGUUCGCCUUGAGGAAGCUGAGGGUCAUCUCCCGGAAUUCCUUGAUGGAGGUGCCCCGGGUCAACAGAGGAUUGAGCAUCA
B10: chr18:52893488:52893489:-_ENSG00000196628_ENST00000354452|hu_hu|hu_hu_hu_mus_True|8_8 (ssRNA)
RNA: GGGAGUUCUACAGUCCGACGAUCUAUUUAGACCAUUUCCGCGGAGUUAUGGCAUUUACUCAGUGCUGAUAGGUGGAAAAACUACUUCAACAGGGAUUUUUUUUUUCCUUAAUACAUGCCAAGAUUGGUGUGGCUGUAAAACAGCAACAGAGGAUUGAGCAUCA
B11: chr4:76721835:76721836:+_ENSG00000138768_ENST00000264904|hu_mus|hu_hu_hu_mus_True|28_88 (ssRNA)
RNA: GGGAGUUCUACAGUCCGACGAUCGUUUGGCUGGGGUUUCUGAGACGUCUGGAAUACUAACUCAUGUUUGCUAAUAAAUCCUAGUUUCUCUAUGAAAUUCUCUUUGCAAUCCUCUUCCUCUAUUAGUUGCUUUAGUUUCUCUUUCAACAGAGGAUUGAGCAUCA
B12: chr1:163112212:163112213:-_ENSG00000143248_ENST00000313961|hu_hu|hu_hu_hu_mus_False|8_108 (ssRNA)
RNA: GGGAGUUCUACAGUCCGACGAUCUUUAUUUAUCCAGAAGAGUGAGUUACAUACUAGGCAAAGUAUUGGAUACAAUAAUCAGGAAACAAACACUAUUGGUCCAGAAUUUAAAACUUUAUGAGCGAAGGCUUACAAAUGGACUUACAACAGAGGAUUGAGCAUCA
B13: chr16:91657502:91657503:+_ENSMUSG00000022961_ENSMUST00000114036|mus_hu|FALSE|FALSE (ssRNA)
RNA: GGGAGUUCUACAGUCCGACGAUCUCUAGGUGCUAACCUAUAUGGCCUGGGUGCUAUUCUAUAGGACCUGGGUGCUAUCCUGUAGGGUCUAGGUGACAUCCUAUAGGGAUCAGGAGUUAGUCUGUAGGGAUCAUGGCCUAAUCUCAACAGAGGAUUGAGCAUCA
B14: chr2:5814250:5814251:-_ENSMUSG00000025816_ENSMUST00000102981|mus_hu|mus_mus_mus_hu_True|1_18 (ssRNA)
RNA: GGGAGUUCUACAGUCCGACGAUCUUCCUUUCCGGUUUCUGAAUUUCUGGUAGAACUGCACAGAAUGGUUUGAUAACUUCUAAAAAUUUGAUGCCCAUGGCUGCUGCUGGGGAGGCCCGGCGGGCACCCGCGGCCUCGCAGCUGCAACAGAGGAUUGAGCAUCA
B15: chr1:45984709:45984710:-_ENSG00000117450_ENST00000319248|hu_hu|FALSE|FALSE (ssRNA)
RNA: GGGAGUUCUACAGUCCGACGAUCUUUUAGCAUUUCCUGAAGACAUCUUCCUAUCAGCAGUCCCAACACAAGUCGCAGAAACUAACCACCGACACCAGGCAAGAACAAGACGCGCAAGAGCUCUCCGGGGCGCUGCCUUUAUAGCAACAGAGGAUUGAGCAUCA
B16: chr22:19452774:19452775:-_ENSG00000070010_ENST00000399523|hu_hu|hu_hu_hu_mus_False|8_8 (ssRNA)
RNA: GGGAGUUCUACAGUCCGACGAUCCUUCUCAUUGUAGUUGAUAGCAAUCACAUCUCCAGUCGUCAGACAGGCGAAGUUUCUCAAUGCAUUUUCUAAUACCGCUUUAGGGUUGGUAAUAUCCAGGAAGUCAGGGCUCUGAGGCUGCAACAGAGGAUUGAGCAUCA
B17: chr3:176740097:176740098:-_ENSG00000177565_ENST00000430069|hu_mus|hu_hu_hu_mus_True|38_108 (ssRNA)
RNA: GGGAGUUCUACAGUCCGACGAUCUGUUUUUUACACCACAAAAGGAGGCACUUUCAGUAUCUGCAAAAGGUGUUUAGUCCUAAAACAUACUCACCUAGAGAAUAAUUCAGGAAAACAAUCUGUUACACUCUAAGACCUACUCCACAACAGAGGAUUGAGCAUCA
B18: chr11:29608523:29608524:+_ENSMUSG00000020458_ENSMUST00000102843|mus_hu|FALSE|FALSE (ssRNA)
RNA: GGGAGUUCUACAGUCCGACGAUCAGAAAAGUCAUCUGAGAAACUGAUUUUCUCUUCAACUUUGGGUUGUAUGUUCUUCAAAGAAAGGUCAUGGGGCAAUUCUGUGCAAGGCAAUGACCCAGCUCCAUCCGGGGCAUUAGCAAUCAACAGAGGAUUGAGCAUCA
B19: 84646022_84649821_1235_CDS_ENSG00000065615_ENST00000369681|human|control|control (ssRNA)
RNA: GGGAGUUCUACAGUCCGACGAUCGGAUAUUUUAAAAUUGCCCUCAGGACUGCUUACAGAAACAAAAUCUCCAAUCUGAAGACGAUCAAGCUCUGGUGUGAAGAGUCCAGUGGGAUAGAUUUUUAUCAAAAAGUAGAUGUAUUUCAACAGAGGAUUGAGCAUCA
B20: chr2:179515052:179515053:+_ENSMUSG00000000305_ENSMUST00000000314|mus_hu|mus_mus_mus_hu_False|38_58 (ssRNA)
RNA: GGGAGUUCUACAGUCCGACGAUCGCUGUCCCAUGCAGUCACCGUGAACGCCACCUGCUCGGAGGGGACCUGCAGCUCCCUAGUGGCGAAGACUGUCCCAUCCGCCCCAACUUUGAAGUCCAUGCUGUUGGUCUCAUAUUGUGUCAACAGAGGAUUGAGCAUCA
B21: 43581398_43581628_2404_CDS_ENSMUSG00000028467_ENSMUST00000030189|mouse|control|control (ssRNA)
RNA: GGGAGUUCUACAGUCCGACGAUCUUCGGACUCCAUCACAGCCAGACACACAGGCCACAUGUCCUCCAGGAAGCCUUGAUCACCCGUCAGGUAAUAGUCCCGAUAAAUUUGCAAUACAAACUUCAGGUUCAGGUCCUUCCAGUCCAACAGAGGAUUGAGCAUCA
B22: chr17:66251843:66251844:+_ENSG00000196704_ENST00000359783|hu_mus|FALSE|FALSE (ssRNA)
RNA: GGGAGUUCUACAGUCCGACGAUCAAGUAUGUGUCCGAUCUCAUGGGUUAAAGUCUUACAGGAUCGCAACAGCAAAACACUAGUGAUUUCAGGGAUGUAAUAGUUAUCAAAAAUGGAGUAGUCAGUGGGAGACGUUAGCUGCAGCAACAGAGGAUUGAGCAUCA

What follows are binders tested against T1, UNK ZnF1-3 (assay: nsRBNS (natural sequence RNA bind-n-seq); RBNS binding buffer (assumed for nsRBNS): 25 mM Tris pH 7.5, 150 mM KCl, 3 mM MgCl2, 0.01% Triton X-100, 500 ug/ml BSA, 20 U/ml SUPERase-In, 4 C; UNK is unkempt and MSI1 is Musashi-1; names of the RNAs are library labels; protein concentration not given here; high values mean tight binding).

In order of rising binding signal:
1. B11  0.44 enrichment R
2. B13  0.53 enrichment R
3. B8  0.584 enrichment R
4. B1  0.76 enrichment R
5. B20  0.768 enrichment R
6. B18  0.784 enrichment R
7. B14  0.806 enrichment R
8. B9  0.827 enrichment R
9. B17  0.84 enrichment R
10. B4  0.856 enrichment R
11. B16  0.859 enrichment R
12. B7  0.953 enrichment R
13. B10  0.986 enrichment R
14. B21  1.02 enrichment R
15. B3  1.07 enrichment R
16. B2  1.15 enrichment R
17. B6  1.27 enrichment R
18. B15  1.35 enrichment R
19. B12  1.36 enrichment R
20. B5  1.55 enrichment R
21. B19  1.98 enrichment R
22. B22  2.37 enrichment R
